In all, about 380,000 compounds went through this assay and about 4,000 (1.1%) were called active. The shares of active, inactive and inconclusive entries below differ from those in the screen. Calls come from the whole dose curve; as a rule, active = well fitted activation curve with a large enough effect; inconclusive = small, poorly fitted or top-dose-only effect; inactive = no such curve, though single readings can be large or run the other way. A potency beside an inconclusive call is a rough fit, not a confirmed value.
Experiment: qHTS Assay to Identify Small Molecule Activators of BRCA1 Expression; note: nearly all actives have a fitted effect of over 80% in size
Settings: MCF7-BRCA1-FFLuc reporter, luminescence, 48 h; activation: at 46.1 µM (top of the series), scaled: vehicle 0%, 10 µM genistein 100% unless noted
Procedure, shortened: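 Luminescence from a BRCA1-driven firefly luciferase in MCF7 cells was read after 48 h compound exposure at 37 C. Data normalized against DMSO and a 10microM genistein activation control, then curve-fitted across the titration.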
Potency is the fitted concentration of half-maximal effect; tags give direction and shape of the fitted curve.

Question: For O=c1c2cc([N+](=O)[O-])ccc2sn1-c1ccccc1, which Potency is on record?
Answer: Its Potency is inconclusive: 11.2 µM [activator, partial curve, poor fit].

Question: For Cc1c2cnn(-c3ccccc3)c(=O)c2c(C)n1CCCC(=O)Nc1cccc(F)c1, which Potency is on record?
Answer: The Potency was “inactive”.

Question: For CN(C)c1cccc(C(=O)N/N=C/c2ccsc2)c1, which Potency is on record?
Answer: The Potency was active: 10 µM.

Question: Which Potency does the source give for Cc1ccc(NC(=O)/C(C#N)=C(\N)C(Cl)(Cl)Cl)nc1 here?
Answer: Its Potency is inconclusive: 1 µM [activator, full curve, poor fit].

Question: With O=C(Cn1cc(SCc2ccc(Cl)cc2)c2ccccc21)N1CCOCC1 as the molecule, how does the Potency read?
Answer: Its Potency is inconclusive: 14.1 µM [activator, partial curve, poor fit].

Question: With COc1ccccc1OCCSc1nc2ccccc2c(=O)[nH]1 as the molecule, how does the Potency read?
Answer: The Potency was inconclusive: 14.1 µM [activator, partial curve, poor fit].

Question: Which Potency does the source give for O=C(O)c1ccc(COc2ccc(CO)cc2Cl)cc1 here?
Answer: Its Potency is active: 7.94 µM.

Question: For S=C(Nc1ccc(Oc2ccccc2)cc1)NC1CCCCCC1, which Potency is on record?
Answer: Its Potency is “inactive”.

Question: For O=C(Nc1ccc2ccccc2n1)c1ccccc1Br, which Potency is on record?
Answer: The Potency was inconclusive: 35.5 µM [activator, single point].

Question: With CC(C)(C)NC(=O)CCCSc1nc2ccccc2s1 as the molecule, how does the Potency read?
Answer: Its Potency is inconclusive: 2.24 µM [activator, full curve, poor fit].

Question: Which Potency does the source give for Cc1onc(-c2c(Cl)cccc2Cl)c1C(=O)NC(=S)Nc1sc2c(c1C(N)=O)CCC(C)C2 (stereo not drawn) here?
Answer: Its Potency is inconclusive: 28.2 µM [activator, single point].

Question: Which Potency does the source give for CCc1cccc(NC(=O)Nc2ccc3c(c2)OCO3)c1 here?
Answer: Its Potency is inconclusive: 7.94 µM [activator, partial curve, poor fit].

Question: For CC(C)(C)n1ncc2c(=O)n(Cc3c(F)cccc3Cl)cnc21, which Potency is on record?
Answer: Its Potency is “inactive”.

Question: Which Potency does the source give for O=C(NC(=S)NCc1ccc(-c2nc3ccccc3s2)cc1)c1ccco1 here?
Answer: The Potency was inconclusive: 1.58 µM [activator, partial curve, poor fit].

Question: For COc1cc(NC(=O)c2ccc(N3CCCC3=O)cc2)cc(OC)c1, which Potency is on record?
Answer: Its Potency is inconclusive: 2.51 µM [activator, full curve, poor fit].

Question: For O=C(Cn1cc(C(=O)C2CC2)c2ccccc21)NCc1ccccc1, which Potency is on record?
Answer: The Potency was active: 12.6 µM.

Question: With Nc1ccc2nc3c(=O)n(C4CCCCC4)c(=O)[nH]c3nc2c1 as the molecule, how does the Potency read?
Answer: The Potency was active: 7.08 µM.

Question: For O=C(NCCc1ccc(Cl)cc1)c1ccc2ccccc2n1, which Potency is on record?
Answer: Its Potency is inconclusive: 3.16 µM [activator, partial curve, poor fit].

Question: With Cc1cc(C(=O)NNC(=O)c2sccc2C)c(C)o1 as the molecule, how does the Potency read?
Answer: Its Potency is inconclusive: 11.2 µM [activator, partial curve, poor fit].

Question: With O=C(O)c1cnn(-c2nc(-c3ccc(F)cc3)cs2)c1C(F)(F)F as the molecule, how does the Potency read?
Answer: The Potency was “inactive”.

Question: With O=c1c2ccccc2nc(-c2ccccc2)n1O as the molecule, how does the Potency read?
Answer: The Potency was “inactive”.

Question: For O=C(NCc1ccccn1)c1ccc([N+](=O)[O-])cc1, which Potency is on record?
Answer: Its Potency is “inactive”.

Question: For Cc1ccc(CONC(=O)c2ccc(OC(F)F)cc2)cc1, which Potency is on record?
Answer: The Potency was inconclusive: 22.4 µM [activator, single point].

Question: With C(=C\c1ccccc1)/C=N/N1CCN(c2ccccn2)CC1 as the molecule, how does the Potency read?
Answer: The Potency was inconclusive: 7.08 µM [activator, partial curve, poor fit].

Question: Which Potency does the source give for C/C(=N\NC(=O)c1ccco1)c1ccc(-c2ccccc2)cc1 here?
Answer: The Potency was active: 8.91 µM.

Question: For CNC(=S)N=Nc1c(O)[nH]c2ccc(C(C)C)cc12, which Potency is on record?
Answer: The Potency was “inactive”.

Question: For O=C(O)CCc1nn2c3ccccc3n(Cc3ccccc3F)c2nc1=O, which Potency is on record?
Answer: Its Potency is “inactive”.

Question: Which Potency does the source give for Cc1ccc(NC(=O)C(=O)N2CCCC2)cc1Cl here?
Answer: The Potency was inconclusive: 2.51 µM [activator, full curve, poor fit].

Question: Which Potency does the source give for O=C(Nc1cc2c(cc1C(=O)O)OCCCO2)c1ccc(F)cc1F here?
Answer: The Potency was inconclusive: 7.94 µM [activator, partial curve, poor fit].

Question: For O=C(NN=C1C2CC3CC1CC(Cl)(C3)C2)c1ccccn1, which Potency is on record?
Answer: The Potency was inconclusive: 15.8 µM [activator, partial curve, poor fit].

Question: Which activation does the source give for O=C(Nc1nc2ccc(F)cc2s1)c1ccccn1 here?
Answer: The activation was inconclusive: -70% [activator].

Question: Which Potency does the source give for CCCN1C(=O)c2[nH]nc(-c3cc(Cl)c(C)cc3O)c2C1c1ccc(O)c(OC)c1 (stereo not drawn) here?
Answer: The Potency was “inactive”.

Question: Which activation does the source give for COc1c(C=O)c2c(c(OC)c1OC)-c1ccc(OC)c(=O)cc1C(NC(C)=O)CC2 (stereo not drawn) here?
Answer: Its activation is inconclusive: -74.1% [activator].

Question: With Cc1ccc(OCC(=O)O/N=C(\N)c2ccccn2)cc1C as the molecule, how does the Potency read?
Answer: Its Potency is inconclusive: 2.51 µM [activator, full curve, poor fit].

Question: For C=CCNc1ncnc2c1cnn2-c1ccc(Cl)cc1, which Potency is on record?
Answer: The Potency was inconclusive: 0.631 µM [activator, full curve, poor fit].

Question: For CC(=O)Nc1cccc(C(=O)OCC(=O)N2CCC(c3ccccc3)=N2)c1, which Potency is on record?
Answer: The Potency was inconclusive: 7.94 µM [activator, partial curve, poor fit].

Question: With CCOc1ccccc1C(=O)Nc1cccc2cccnc12 as the molecule, how does the Potency read?
Answer: The Potency was “inactive”.

Question: With Cc1nc(C(F)(F)F)ccc1C(=O)N1CCC1(C)C(=O)NS(=O)(=O)c1cccc(Cl)c1 (stereo not drawn) as the molecule, how does the Potency read?
Answer: The Potency was “inactive”.

Question: For CCCCC(=O)N/C(N)=N/c1nc2ccccc2o1, which Potency is on record?
Answer: The Potency was inconclusive: 1.26 µM [activator, full curve, poor fit].

Question: For Cc1ccccc1C(=O)Nc1ccc(N2CCCCCC2)cc1, which Potency is on record?
Answer: Its Potency is inconclusive: 1.58 µM [activator, partial curve, poor fit].

Question: Which Potency does the source give for CCCCOC(=O)CSc1ncnc2sc3c(c12)CCC(C)C3 (stereo not drawn) here?
Answer: Its Potency is “inactive”.

Question: For Cc1cc(OCc2cc(C(=O)N(C)C(C)c3ccccn3)no2)cc(C)c1Cl (stereo not drawn), which Potency is on record?
Answer: The Potency was active: 11.2 µM.

Question: With O=C(Nc1ccc(NC(=O)C2CC2)cn1)c1ccccc1Cl as the molecule, how does the Potency read?
Answer: The Potency was active: 12.6 µM.

Question: Which Potency does the source give for S=C(NCCc1ccccn1)Nc1ccc(Cl)cc1Cl here?
Answer: The Potency was inconclusive: 35.5 µM [activator, single point].

Question: Which Potency does the source give for COc1ccc(C)cc1NC(=O)CCNS(=O)(=O)c1cccc(C(F)(F)F)c1 here?
Answer: The Potency was “inactive”.

Question: Which Potency does the source give for CC1(C)CCc2cc(O)ccc2O1 here?
Answer: The Potency was “inactive”.

Question: Which Potency does the source give for COc1ccc(Cc2nc3ccc(C(=O)N(C)CCn4ccnc4)cc3o2)cc1OC here?
Answer: The Potency was inconclusive: 15.8 µM [activator, single point].

Question: For CCOC(=O)c1cnc(SCCc2ccccc2)nc1N, which Potency is on record?
Answer: Its Potency is inconclusive: 2.82 µM [activator, full curve, poor fit].

From PubChem BioAssay AID624202 (National Center for Advancing Translational Sciences (NCATS), 2012)
